The record followed here is publication PMC4336329 (PLoS ONE, 2015).

Out of some 310,000 compounds screened, about 14,000 (4.5%) showed an effect of 50% or more. The effect is printed as a negative number. Some of the results follow.
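Further: peak tail current of the secondary pulse compared with the same well before compound.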

Sequence of human ether-à-go-go-related gene (hERG) potassium channel (Q12809 whole entry, looked up): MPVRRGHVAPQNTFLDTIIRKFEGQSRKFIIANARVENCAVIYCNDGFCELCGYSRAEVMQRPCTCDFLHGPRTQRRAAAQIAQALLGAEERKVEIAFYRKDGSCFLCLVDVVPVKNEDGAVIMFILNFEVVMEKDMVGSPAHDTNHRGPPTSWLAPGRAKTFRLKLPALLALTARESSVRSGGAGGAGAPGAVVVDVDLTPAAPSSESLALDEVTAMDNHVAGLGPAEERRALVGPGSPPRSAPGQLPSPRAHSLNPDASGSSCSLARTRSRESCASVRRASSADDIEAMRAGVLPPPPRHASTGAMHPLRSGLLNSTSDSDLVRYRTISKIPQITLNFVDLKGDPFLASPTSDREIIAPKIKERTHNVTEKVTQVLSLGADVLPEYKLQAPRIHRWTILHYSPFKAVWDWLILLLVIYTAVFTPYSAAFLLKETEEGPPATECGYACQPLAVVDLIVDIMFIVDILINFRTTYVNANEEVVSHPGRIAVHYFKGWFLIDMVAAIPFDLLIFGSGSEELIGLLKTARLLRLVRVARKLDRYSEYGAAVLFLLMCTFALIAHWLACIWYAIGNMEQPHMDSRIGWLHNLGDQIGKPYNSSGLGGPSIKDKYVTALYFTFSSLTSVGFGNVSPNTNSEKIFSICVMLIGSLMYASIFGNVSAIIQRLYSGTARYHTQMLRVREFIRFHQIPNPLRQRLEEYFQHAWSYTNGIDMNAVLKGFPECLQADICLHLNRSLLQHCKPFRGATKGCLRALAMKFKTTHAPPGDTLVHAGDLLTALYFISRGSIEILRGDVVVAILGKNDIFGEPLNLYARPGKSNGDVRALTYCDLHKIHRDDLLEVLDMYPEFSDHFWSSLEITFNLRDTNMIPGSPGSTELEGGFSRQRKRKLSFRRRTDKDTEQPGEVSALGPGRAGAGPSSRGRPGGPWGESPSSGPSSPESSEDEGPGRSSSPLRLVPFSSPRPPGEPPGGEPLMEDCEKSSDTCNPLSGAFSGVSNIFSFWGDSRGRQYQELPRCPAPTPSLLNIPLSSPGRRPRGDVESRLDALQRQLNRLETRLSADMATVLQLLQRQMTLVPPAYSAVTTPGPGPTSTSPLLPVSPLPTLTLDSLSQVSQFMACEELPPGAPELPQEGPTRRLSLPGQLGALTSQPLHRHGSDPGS

The assay has as its target human ether-à-go-go-related gene (hERG) potassium channel (human, UniProt Q12809). As to the kind of experiment: primary screen, population patch clamp on CHO cells stably expressing hERG.
With `Cc1ccc(-c2csc(N/N=C/c3ccco3)n2)cc1`, the “hERG current change (%, negative = inhibition) at 10uM” value is given as -5.35%. For the compound `O=C1C2C3CCC(C3)C2C(=O)N1c1ccc(OS(=O)(=O)c2ccccc2)cc1` (stereo not shown), the “hERG current change (%, negative = inhibition) at 10uM” value is 3.05%. As for `CCN(CC(=O)Nc1cc(Cl)ccc1C)C(=O)COc1cccc2c1OC(C)(C)C2`, the “hERG current change (%, negative = inhibition) at 10uM” value was -4.2%.

In the case of `COCCN(C(C)=O)c1nnc(-c2cnccn2)s1`, the “hERG current change (%, negative = inhibition) at 10uM” value amounted to 6.11%. In the case of `COc1ccc2c(c1OC)C(=O)OC2C1c2c(cc3c(c2OC)OCO3)CCN1C.Cl` (stereo not shown), the “hERG current change (%, negative = inhibition) at 10uM” value is recorded as -1.88%. Next, `CC/C(O)=C1\C(=O)CC(c2ccccc2)CC1=NCCC(=O)O` (stereo not shown): 15.6%. In the case of `Cc1cc(=O)n2nc(N3CCC(C(=O)NCC(C)c4ccccc4)CC3)sc2n1` (stereo not shown), the “hERG current change (%, negative = inhibition) at 10uM” value is reported as -13%. With `O=C1CC(c2ccco2)Sc2nc3ccccc3n21` (stereo not shown), the “hERG current change (%, negative = inhibition) at 10uM” value turned out to be 6.09%. For the compound `COc1cc(C(=O)NCc2ccc(-c3nc4ccccc4s3)cc2)cc(OC)c1OC`, the “hERG current change (%, negative = inhibition) at 10uM” value stood at 0.994%. As for `CCOC(=O)c1cc[n+](CC(=O)c2ccc(F)cc2)cc1.[Br-]`, the “hERG current change (%, negative = inhibition) at 10uM” value was -15.8%. As for `COC(=O)c1ccc(NC(=O)COc2cccc(-n3cnnn3)c2)cc1`, the “hERG current change (%, negative = inhibition) at 10uM” value amounted to 6.77%.

For the compound `Cc1cccc(C)c1OCCCCN1CCCCC1.O=C(O)C(=O)O`, the “hERG current change (%, negative = inhibition) at 10uM” value is given as -11.8%.

As to `O=C(CC(=O)N/N=C/c1cccs1)NCc1ccccc1`, the “hERG current change (%, negative = inhibition) at 10uM” value was 15.3%.

Take `O=S(=O)(Nc1nc2ccccc2nc1Cl)c1ccccc1C(F)(F)F`: the “hERG current change (%, negative = inhibition) at 10uM” value was -5.32%. On to `CCC(=O)NCCCCCCNC(=O)CC`, for which the “hERG current change (%, negative = inhibition) at 10uM” value is listed as 0.405%. In the case of `C=CCSc1nnc2c(n1)OC(c1cccnc1)Nc1ccccc1-2` (stereo not shown), the “hERG current change (%, negative = inhibition) at 10uM” value is listed as -22.1%.

Regarding `Nc1nc(SCc2ccccc2Cl)ns1`, the “hERG current change (%, negative = inhibition) at 10uM” value is listed as -22%.

On to `CC1CCN(c2nnc(-c3cccs3)c3ccccc23)CC1`, for which the “hERG current change (%, negative = inhibition) at 10uM” value was -41.6%. For the compound `Nc1ccc(N2CCOCC2)c2nonc12`, the “hERG current change (%, negative = inhibition) at 10uM” value amounted to 56.7%. For `CCOc1ccc(C(=O)NC2CCN(S(=O)(=O)c3ccccc3)CC2)cc1`, the “hERG current change (%, negative = inhibition) at 10uM” value is listed as -4.42%.

As to `Cn1c(SCC(=O)NC2CCCC2)nnc1-c1ccco1`, the “hERG current change (%, negative = inhibition) at 10uM” value is 17.3%. Next, `COC(=O)CC1(CC(=O)OC)C(=O)NC(=O)NC1=O`: 7.37%. With `CCCCNC(=O)c1ccc(SCC(=O)N(CC)CC)c([N+](=O)[O-])c1`, the “hERG current change (%, negative = inhibition) at 10uM” value came out at 5.66%. Consider `O=C(c1cccc2ccccc12)N1CCN(c2ccc([N+](=O)[O-])c(N3CCOCC3)c2)CC1`, for which the “hERG current change (%, negative = inhibition) at 10uM” value is given as -13.7%. Consider `CCC(=O)N1CCN(c2ccccc2NC(=O)c2ccc(-c3cccc([N+](=O)[O-])c3)o2)CC1`, for which the “hERG current change (%, negative = inhibition) at 10uM” value is -34.1%. As for `Fc1ccc(CCNCc2ccc(Br)cc2)cc1`, the “hERG current change (%, negative = inhibition) at 10uM” value is listed as -53.8%. For the compound `O=C(N/N=C/c1ccccn1)c1cccc(NC(=O)c2ccc(Cl)cc2)c1`, the “hERG current change (%, negative = inhibition) at 10uM” value is reported as -11.7%. With `CS(=O)(=O)N1CCN(c2ccccc2NC(=O)c2cc(Br)ccc2Cl)CC1`, the “hERG current change (%, negative = inhibition) at 10uM” value is -30.3%. Next, `COc1ccc(-n2cnnc2SCC(=O)Nc2cc(C(C)(C)C)nn2-c2ccccc2)cc1`: -1.25%; `COc1ccc(C[C@@H]2c3cc(O)c(OC)cc3CCN2C)cc1O.[O-][Cl+3]([O-])([O-])O`: 2.2%. Regarding `CCOC(=O)c1ccc(Oc2ccc(C(F)(F)F)cn2)cc1`, the “hERG current change (%, negative = inhibition) at 10uM” value is reported as 2.06%.

In the case of `O=C(Nc1nnc(Cc2ccccc2)s1)Nc1ccccc1F`, the “hERG current change (%, negative = inhibition) at 10uM” value was determined as 11.1%. Regarding `COC(=O)c1ccc(COc2nc(C)cc(C)c2C#N)o1`, the “hERG current change (%, negative = inhibition) at 10uM” value is reported as -24.9%. Turning to `Cc1cnc(C(=O)OCC(=O)c2ccc(-c3ccccc3)cc2)cn1`, the “hERG current change (%, negative = inhibition) at 10uM” value stood at 11.1%.

With `CCOC(=O)C(C)N(c1ccccc1Cl)S(C)(=O)=O` (stereo not shown), the “hERG current change (%, negative = inhibition) at 10uM” value is recorded as -13.4%. Next, `Cc1ccc(CCN2CC(C(=O)N3CCN(c4ccc(F)cc4)CC3)CC2=O)cc1` (stereo not shown): -57.4%; `Cc1ccc(NC(=S)NCc2cccnc2)cc1`: -16.9%.

As to `CCOP(=O)(Cc1ccccc1)OCC`, the “hERG current change (%, negative = inhibition) at 10uM” value came to 20.7%. Take `COc1ccc2nc3c(c(-c4ccccc4)c2c1)CCC3`: the “hERG current change (%, negative = inhibition) at 10uM” value is listed as -5.34%.

Turning to `COc1ccc(-c2nnc3sc(CCN4C(=O)c5ccccc5C4=O)nn23)cc1`, the “hERG current change (%, negative = inhibition) at 10uM” value is reported as -10.3%. As for `Cc1ccc(S(=O)(=O)N2CCN(C(=O)C(C)Cn3cncn3)CC2)cc1` (stereo not shown), the figure is 4.36%; as for `COc1cccc(CNC(=O)c2ccccc2N)c1`, -10.8%. On to `CC1CCN(C(=O)COC(=O)COc2ccccc2C#N)CC1`, for which the “hERG current change (%, negative = inhibition) at 10uM” value stood at 7.56%. Take `COc1cccc(NC(=O)c2ccc3c(c2)N(C)CCS3)c1`: the “hERG current change (%, negative = inhibition) at 10uM” value is recorded as -6.67%. `O=C(COC(=O)c1cc(Br)ccc1Cl)NC1CCCC1`: the “hERG current change (%, negative = inhibition) at 10uM” value came out at 4.64%. For `CC(C)NC(=O)COc1ccc(OCc2ccccc2)cc1`, the “hERG current change (%, negative = inhibition) at 10uM” value came out at 4.16%.
